± gives the standard deviation of the averaged measurements. The list shows a part of the results.
tested on: PfAP2-I AP2 domain 3 (GST-tagged); assay: gcPBM binding intensity (ln(normalized median fluorescence intensity)); higher = stronger DNA binding
Summary of the method: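 An Agilent 4 × 180k array carrying primer-extended double-stranded 36-bp intergenic genomic probes and negative controls received GST-tagged P. falciparum DNA-binding domains expressed in E. coli, about 25 μg on average, for 1 h. The binding buffer contained 1× PBS, 1% milk, 0.2 mg/ml BSA, 0.5% salmon testes DNA and 0.03% Triton X-100. Binding intensity is the top Masliner-normalised natural-log median intensity across replicate spots of either probe orientation, read after Alexa488 anti-GST antibody staining and a 488 nm scan.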

Sequence	gcPBM binding intensity (ln)
ATATATATACTGTGTACACAAATATATATTATATAT [CACACA_site6104]	8.61 ± 0.52
GATAATTTATTTTTTCGTACACAAAATATAATATAT [XGTACX_site1470]	7.99 ± 0.32
TATATATCAAGACACACACACATATATTTATTTATA [CACACA_site7733]	7.92 ± 0.51
TTTTTTAAAGATTACTCAAAAAAATAAAAAAATAAA [GTGCAC_negctrl_site222]	7.46 ± 0.45
TCGTGAGAAAATATTACACACATTTACTATAGTATC [CACACA_site3444]	7.62 ± 0.53
TGAGTTCAACAAAGACGTACAAAACCAAAAATATAA [XGTACX_site8931]	7.92 ± 0.64
TTTTTTTTTTTTTTTTGATACATTAACCTACAATGG [GTGCAC_negctrl_site625]	8.02 ± 0.35
ATTATAAACCATAATTAACACACAAAATAAGTTACA [CACACA_site9057]	7.74 ± 0.56
AAAAAAAAAGAAAAATGTACATACATAAATATATAT [XGTACX_site5664]	7.77 ± 0.68
AAAAAAAAAAAAAAAAGTACACAAATAGATTTATAT [XGTACX_site3727]	8.58 ± 0.26
ATTCTATTTTTTATAAAACCATGTCATCAACATAGG [CACACA_negctrl_site237]	7.64 ± 0.52
TCCTTTCAACCATATATAATGACATGTACTCAAAAA [GTGCAC_negctrl_site417]	8.08 ± 0.34
CATCCATATAAAATATGTACATATATATATATATAT [XGTACX_site5859]	9.23 ± 0.35
TATTTTAGTAAAGGTGGTACTTTTAAGTTCATGTAT [XGTACX_site1854]	8.02 ± 0.5
AATATGAATATCTATACACACACATATATATACACA [CACACA_site8459]	7.79 ± 0.5
ATTTGTGACCACACAAATAAATAAATAAAAAAAAAA [TGCATGCA_negctrl_site328]	8.03 ± 0.35
ATATATTTATATTTGTGTACATATTTATTATATTTA [XGTACX_site404]	7.79 ± 0.61
TAATAATAGAAACACACACACATTTTTAATAATACA [CACACA_site1216]	7.81 ± 0.54
AAGAAGAAAAACCATTGTACGAACTAACATATATAA [XGTACX_site3226]	7.82 ± 0.67

Sequence	gcPBM binding intensity (ln)
GGTATACATAATACTTGTACTAGGCAACAATAAGAT [XGTACX_site1437]	8.1 ± 0.64
TGTTAAAAGAAAAAAAGTACAAAAAATTATACATTT [XGTACX_site467]	7.76 ± 0.36
TATATTTTATATTAGTGTACAAATTTCATTTTTCAT [XGTACX_site2204]	7.57 ± 0.46
AATATATATAAAAAAGTGCATTAGGATAACCATATA [GTGCAC_site9590]	11.2 ± 0.57
TATATATATATATTCACACATATAGTATTGTATTTA [CACACA_site5147]	9.22 ± 0.31
AAATTTGGATGACTCAATAAATTATAATATATATAT [CACACA_negctrl_site298]	8.895 ± 0.035
ATATTCTTTATATGCATACACACCTAATATAGGGAC [CACACA_site1533]	8.16 ± 0.61
AATCATTTGTTATAAGTCTAAAATTATTAGAATATT [XGTACX_negctrl_site151]	7.33 ± 0.7
TTCAATTTTTTAAAGCGTACATATAAAAGTTATATG [XGTACX_site731]	7.86 ± 0.18
ATTATTACATATAATGCATGTGCATATATTTTTATA [TGCATGCA_site701]	9.57 ± 0.43
TTTTTTTAAATATATAAGATAAATTTATAAATAAAT [XGTACX_negctrl_site282]	7.16 ± 0.44
AAAAAAAATTTCTCAAGTACACAATTTTTTTTTGTT [XGTACX_site5874]	7.73 ± 0.58
TTTTATCATCACATTTGTCAAAAAAAAAAAAAAAAA [CACACA_negctrl_site1296]	8.23 ± 1.1
TTATAATAAAAAAATTCCTAAGTCCGTATATATTAT [CACACA_negctrl_site1698]	7.37 ± 0.45
TTTTATTTTTATAACAGTACATAAGTAATTGTTCAA [XGTACX_site7574]	7.63 ± 0.58
TTATGTTCATTATATGCACACATATATATAAATGTA [CACACA_site8947]	9.11 ± 0.071
GATTTTATAATTTCTACACACATATAAGAATATTCA [CACACA_site2802]	7.68 ± 0.84
ATATCAAACTAGAATGTGCGCATGCATTCAAGTTTT	7.93 ± 0.88
ATATTTTCCCTTTATAGGAGCACAAAAATTAAATGT [CACACA_negctrl_site1114]	8.18 ± 0.39

Sequence	gcPBM binding intensity (ln)
CAGATAAGATTTTGTGGTACTATTTATTAAATTAGA [XGTACX_site2644]	7.55 ± 0.3
GCTAATAATAAAAGCATAATGAACAAACACCCAGTA [CACACA_negctrl_site806]	8.28 ± 0.46
TTATATAACACGGGGAGGACACAAGAAATAAAGAGC [XGTACX_site2148]	9.02 ± 0.23
TTTTTCTGTTTTTATAGCCTTCTCATAATACATAAA [TGCATGCA_negctrl_site355]	7.9 ± 0.71
ATTCGGATCTATAAGTGTACACAATCTAGCGAAAAG [XGTACX_site3088]	7.95 ± 0.57
TATACGCAGAAACACACACACAAAAAAAAAAAAAAA [CACACA_site427]	8.12 ± 0.66
TATAATAAATCGAACTGTACATATATATATATATAT [XGTACX_site7097]	9.3 ± 0.49
ATTTTTTTTGCTAAGTGTACACAAATGTTTATTAAT [XGTACX_site7440]	8.48 ± 0.34
TTTATTCAAATATAATGTACTTTCTACAAATTCAAT [XGTACX_site8119]	7.65 ± 0.41
CATATATAAATATATACACACATATATATATATATA [CACACA_site1365]	9.26 ± 0.48
AATATGTAAATATGGGTGCTTTAAAATATATTCATT [GTGCAC_site9583]	11.1 ± 0.66
TTCCAATGATAAAATTGTACTTGAAGAAAATTTTTT [XGTACX_site4607]	7.36 ± 0.57
ATATATATATGGAAGTGTACTTATATAGCATACTAG [XGTACX_site5130]	9.035 ± 0.078
TACGTATCATAATTTTATTTTATATATATTCACAAA [XGTACX_negctrl_site144]	7.62 ± 0.58
AGCGTATAACATATGACACACACACCGACATACACA [CACACA_site8532]	8.07 ± 0.54
AAATTTTTATAATTATCACACATTGAATTGTGGTCT [CACACA_site4343]	7.65 ± 0.79
ATTCACAAATATATGGTGCATAATATATATATATAT [GTGCAC_site9674]	11.31 ± 0.078
AACAATTATTGTAATGCATGCACTGAATATAGAAAG [TGCATGCA_site889]	9.45 ± 0.67

Source: the supplement of paper PMC11417369
